# Scores whose standard error is large were omitted. Two further conditions of the source, in which the scores hardly spread, are not listed. In variant names, del marks residues removed and ins residues inserted between the two positions. For some of these results: How much ogerin was present is not stated here.
# B1: GPR68, Q15743 (parent)
# chain: MGNITADNSSMSCTIDHTIHQTLAPVVYVTVLVVGFPANCLSLYFGYLQIKARNELGVYLCNLTVADLFYICSLPFWLQYVLQHDNWSHGDLSCQVCGILLYENIYISVGFLCCISVDRYLAVAHPFRFHQFRTLKAAVGVSVVIWAKELLTSIYFLMHEEVIEDENQHRVCFEHYPIQAWQRAINYYRFLVGFLFPICLLLASYQGILRAVRRSHGTQKSRKDQIQRLVLSTVVIFLACFLPYHVLLLVRSVWEASCDFAKGVFNAYHFSLLLTSFNCVADPVLYCFVSETTHRDLARLRGACLAFLTCSRTGRAREAYPLGAPEASGKSGAQGEEPELLTKLHPAFQTPNSPGSGGFPTGRLA
# Key:
# [1] = variants of: B1; assay: cAMP reporter score (Enrich2 score, wild type = 0); higher = more signal; HEK293T, FACS bins; conditions: modulator: ogerin
# [2] = variants of: B1; assay: surface expression score (Enrich2 score, wild type = 0); higher = more signal; HEK293T, FACS bins
variant,measurement,setting,value
MGNITADNSSMSCTIDHTIHQTLAPVVYVTVLVVGFPANCLSLYFGYLQIKARNELGVYLCNLTVADLFYICSLPFWLQYVLQHDNWSHGDLSCQVCGILLYENIYISVGFLCCISVDRYLAVAHPFRFHQFRTLKAAVGVSVVIWAKELLTSDYFLMHEEVIEDENQHRVCFEHYPIQAWQRAINYYRFLVGFLFPICLLLASYQGILRAVRRSHGTQKSRKDQIQRLVLSTVVIFLACFLPYHVLLLVRSVWEASCDFAKGVFNAYHFSLLLTSFNCVADPVLYCFVSETTHRDLARLRGACLAFLTCSRTGRAREAYPLGAPEASGKSGAQGEEPELLTKLHPAFQTPNSPGSGGFPTGRLA [I154D],cAMP reporter score,[1]; pH 6,-0.661
same,surface expression score,[2],-0.396
MGNITADNSSMSCTIDHTIHQTLAPVVYVTVLVVGFPANCLSLYFGYLQIKARNELGVYLCNLTVADLFYICSLPFWLQYVLQHDNWSHGDLSCQVCGILLYENIYISVGFLCCISVDRYLAVAHPFRFHQFRTLKAAVGVSVVIWAKELLTSIYFLMHEEVIEDENQCRVCFEHYPIQAWQRAINYYRFLVGFLFPICLLLASYQGILRAVRRSHGTQKSRKDQIQRLVLSTVVIFLACFLPYHVLLLVRSVWEASCDFAKGVFNAYHFSLLLTSFNCVADPVLYCFVSETTHRDLARLRGACLAFLTCSRTGRAREAYPLGAPEASGKSGAQGEEPELLTKLHPAFQTPNSPGSGGFPTGRLA [H169C],cAMP reporter score,[1]; pH 6,0.399
same,cAMP reporter score,[1]; pH 6.5,0.214
MGNITADNSSMSCTIDHTIHQTLAPVVYVTVLVVGFPANCLSLYFGYLQIKARNELGVYLCNLTVADLFYICSLPFWLQYVLQHDNWSHGDLSCQVCGILLYENIYISVGFLCCISVDRYLAVAHPFRFHQFRTLKAAVGVSVVIWAKELLTSIYFLMHEEVIEDENQHRVCNEHYPIQAWQRAINYYRFLVGFLFPICLLLASYQGILRAVRRSHGTQKSRKDQIQRLVLSTVVIFLACFLPYHVLLLVRSVWEASCDFAKGVFNAYHFSLLLTSFNCVADPVLYCFVSETTHRDLARLRGACLAFLTCSRTGRAREAYPLGAPEASGKSGAQGEEPELLTKLHPAFQTPNSPGSGGFPTGRLA [F173N],cAMP reporter score,[1]; pH 6,-0.477
same,surface expression score,[2],0.424
MGNITADNSSMSCTIDHTIHQTLAPVVYVTVLVVGFPANCLSLYFGYLQIKARNELGVYLCNLTVADLFYICSLPFWLQYVLQHDNWSHGDLSCQVCGILLYENIYISVGFLCCISVDRYLAVAHPFRFHQFRTLKAAVGVSVVIWAKELLTSIYFLMHEEVIEDENQHRVCFEEYPIQAWQRAINYYRFLVGFLFPICLLLASYQGILRAVRRSHGTQKSRKDQIQRLVLSTVVIFLACFLPYHVLLLVRSVWEASCDFAKGVFNAYHFSLLLTSFNCVADPVLYCFVSETTHRDLARLRGACLAFLTCSRTGRAREAYPLGAPEASGKSGAQGEEPELLTKLHPAFQTPNSPGSGGFPTGRLA [H175E],cAMP reporter score,[1]; pH 6,-3.08
same,cAMP reporter score,[1]; pH 6.5,-1.82
same,surface expression score,[2],0.807
V192_G193insGSG,cAMP reporter score,[1]; pH 6,-0.786
same,cAMP reporter score,[1]; pH 6.5,-2.41
MGNITADNSSMSCTIDHTIHQTLAPVVYVTVLVVGFPANCLSLYFGYLQIKARNELGVYLCNLTVADLFYICSLPFWLQYVLQHDNWSHGDLSCQVCGILLYENIYISVGFLCCISVDRYLAVAHPFRFHQFRTLKAAVGVSVVIWAKELLTSIYFLMHEEVIEDENQHRVCFEHYPIQAWQRAINYYRFLVGFLFPICLLLASYQGILRAVRRSHGTQKSRKDQIQRLVLSTVMIFLACFLPYHVLLLVRSVWEASCDFAKGVFNAYHFSLLLTSFNCVADPVLYCFVSETTHRDLARLRGACLAFLTCSRTGRAREAYPLGAPEASGKSGAQGEEPELLTKLHPAFQTPNSPGSGGFPTGRLA [V235M],cAMP reporter score,[1]; pH 6,1.65
same,cAMP reporter score,[1]; pH 6.5,2.12
same,surface expression score,[2],0.058
MGNITADNSSMSCTIDHTIHQTLAPVVYVTVLVVGFPANCLSLYFGYLQIKARNELGVYLCNLTVADLFYICSLPFWLQYVLQHDNWSHGDLSCQVCGILLYENIYISVGFLCCISVDRYLAVAHPFRFHQFRTLKAAVGVSVVIWAKELLTSIYFLMHEEVIEDENQHRVCFEHYPIQAWQRAINYYRFLVGFLFPICLLLASYQGILRAVRRSHGTQKSRKDQIQRLVLSTVYIFLACFLPYHVLLLVRSVWEASCDFAKGVFNAYHFSLLLTSFNCVADPVLYCFVSETTHRDLARLRGACLAFLTCSRTGRAREAYPLGAPEASGKSGAQGEEPELLTKLHPAFQTPNSPGSGGFPTGRLA [V235Y],cAMP reporter score,[1]; pH 6,-0.652
same,cAMP reporter score,[1]; pH 6.5,-0.431
MGNITADNSSMSCTIDHTIHQTLAPVVYVTVLVVGFPANCLSLYFGYLQIKARNELGVYLCNLTVADLFYICSLPFWLQYVLQHDNWSHGDLSCQVCGILLYENIYISVGFLCCISVDRYLAVAHPFRFHQFRTLKAAVGVSVVIWAKELLTSIYFLMHEEVIEDENQHRVCFEHYPIQAWQRAINYYRFLVGFLFPICLLLASYQGILRAVRRSHGTQKSRKDQIQRLVLSTVVIFLACFLPYGVLLLVRSVWEASCDFAKGVFNAYHFSLLLTSFNCVADPVLYCFVSETTHRDLARLRGACLAFLTCSRTGRAREAYPLGAPEASGKSGAQGEEPELLTKLHPAFQTPNSPGSGGFPTGRLA [H245G],cAMP reporter score,[1]; pH 6,-0.818
same,cAMP reporter score,[1]; pH 6.5,-0.467
same,surface expression score,[2],-0.159

# Source: the GPR68 mutational scans of Howard et al. (2025)
